Experimental findings from PubChem BioAssay AID434955 (Southern Research Specialized Biocontainment Screening …, 2010) are described below.

The other results are listed elsewhere or left out. These are further read-outs of the screen, such as a control signal, another cell line or another target. No call is given for them. Compounds called inactive in the main read-out are mostly missing here.

A short description of the assay: beta-lactam sensitization of Mtb H37Rv, H37Rv (AID 434955).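 Further: growth measured after seven days incubation then overnight dye step; 0% = bacteria only wells and 100% = bacteria with antibiotic.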 To be noted: M. tuberculosis H37Rv growth with meropenem, percent inhibition; measured here: primary screen without meropenem; at 25 µM.
For `CCOc1cc(/C=N/O)ccc1OCC(=O)Nc1cccc(C)c1`, the inhibition was 46.8%. As for `Cc1cccc(NC(=S)NC2CC3C=CC2C3)c1` (stereo unspecified), the figure is 37.1%. As for `CCc1cc(C(=O)N2CCCC(Nc3ccc(F)c(F)c3)C2)n(C)n1` (stereo unspecified), the figure is -1.97%; as for `O=C1CNC(=S)N1CCCc1ccccc1`, 1.72%; as for `O=C(NC1CCCc2ccccc21)C1CCN(c2c3c(nc4ncnn24)CCC3)CC1` (stereo unspecified), 5.62%.

For the compound `O=C(Cn1nc(-c2cccc(Cl)c2)ccc1=O)Nc1cccnc1`, the inhibition stood at 6.63%.

As for `CCN(c1ccc(OC)cc1)S(=O)(=O)c1ccc2c(c1)CCN2C(=O)CCC(=O)O`, the inhibition was -2.77%. As for `COc1ccc(N2CCN(CC(=O)Nc3ccccc3C(=O)NCc3ccccc3)CC2)cc1`, the inhibition was determined as 83.4%. The figure for `O=c1c2c3n(c(=S)nc2[nH]n1-c1ccccc1)CCCCC3` is -1.07%. As for `COc1ccccc1CNC(=O)c1ccc(SC)cc1OC`, the figure is 25.9%; as for `COc1ccc(-c2nn3cnnc3s2)cc1OC`, -7.05%; as for `Cc1c(C(=O)Nc2cnccn2)oc2ccccc12`, -0.25%. As for `COc1ccc(/C=C/C(=O)N(C(C)C)C(C)C)cc1Br`, the figure is 56.8%; as for `CN(C)C(=O)N1CCN(C(=O)c2ccco2)CC1`, -4.52%; as for `CCS(=O)(=O)N1Cc2ccccc2CC1C(=O)Nc1nc2ccc(F)cc2s1` (stereo unspecified), 47%. In the case of `COc1ccc(Cl)cc1NC(=O)CCc1nnc2ccc(N3CCC4(CC3)OCCO4)nn12`, the inhibition was -4.98%.

For `COc1ccc2c(c1OC)C(=O)OC2Nn1cncn1` (stereo unspecified), the inhibition came to 2.09%. Turning to `O=C(CC1CCCC1)N1CCCC(Nc2ccc(F)cc2)C1` (stereo unspecified), the inhibition is -3.65%. As for `S=C(NNc1ccc2ccccc2c1)NC1CCCCC1`, the figure is 46.2%. As for `CCOC(=O)C1(Cc2cccc(Cl)c2)CCCN(C(=O)CCN2CCCC2=O)C1` (stereo unspecified), the figure is 0.27%. The figure for `CCc1cccc(NC(=O)CCC(=O)N2CCSc3ccccc32)c1` is -10.4%; for `COc1ccc(C(=O)Nc2cccc3c2CCCC3)c(OC)c1` it is 35.8%; for `CCOC(=O)/C(C#N)=C\c1ccc(N2CCN(C/C=C/c3ccccc3)CC2)cc1` it is 84.7%. Take `CC(=O)N1c2c(cc(Br)cc2S(=O)(=O)N2CCN(c3ccccn3)CC2)CC1C` (stereo unspecified): the inhibition was 1.33%. As for `O=C(Nc1ncc([N+](=O)[O-])s1)c1ccco1`, the figure is 0.17%; as for `COc1ccc(C2N3CC4(C)CN2CC(C)(C3)C4=O)cc1OC` (stereo unspecified), -10.5%. The figure for `Cc1ccc(C(=O)NCC(=O)OCc2nnc(-c3ccccc3)o2)cc1` is 5.62%.

`CSc1ccccc1NC(=O)COc1ccc(Cl)cc1C`: the inhibition was 19.7%. For the compound `O=C(CN1C(=O)S/C(=C\c2cccc(Cl)c2)C1=O)NCCCn1ccnc1`, the inhibition was 5.7%.

Turning to `CCc1nc(CNC(=O)C2CCC(=O)N(CCc3ccc(OC)cc3)C2)cs1` (stereo unspecified), the inhibition came out at 5.87%.

With `CCOc1ccccc1/C=N/n1c(COc2ccccc2)n[nH]c1=S`, the inhibition stood at 5.3%. As for `O=C(N/N=C/c1cc([N+](=O)[O-])ccc1O)C1CC1`, the figure is 21.6%; as for `CCN(CC)c1nc(Nc2ccccc2)nc(Oc2ccc(=O)n(C)n2)n1`, 4.38%; as for `COc1ccc(C(=O)Nc2ccc(OCC(=O)N3CCOCC3)cc2)c(OC)c1OC`, -7.55%. As for `O=C(CSc1ncnc2c1cnn2-c1ccccc1)Nc1ccc2c(c1)OCO2`, the figure is 10.8%; as for `CCC(C)(C(=O)NC1CCCC1)N(CC1CCCO1)C(=O)c1ccc2c(c1)OCO2` (stereo unspecified), -8.7%. As for `Cc1ccnc(NC(=O)Cn2c(=O)oc3ccccc32)c1`, the figure is -8.09%. Take `Cc1c[nH]c2cccc(OCC(CNC(C)(C)C)OC(=O)c3ccccc3)c12` (stereo unspecified): the inhibition turned out to be 1.94%.

On to `O=C(NC(=O)c1csnn1)Nc1ccccc1Cl`, for which the inhibition was -0.67%. As to `O=C(CSc1nnc(CNC(=O)c2c(F)cccc2F)o1)NCc1ccc(F)cc1`, the inhibition worked out at 4.54%. The figure for `CC(C)CN(C(=O)CCc1ccccc1)c1c(N)n(CC(C)C)c(=O)[nH]c1=O` is -7.64%; for `O=C(Nc1nnc(SCCC2OCCO2)s1)C1CC(=O)N(c2ccc(F)cc2)C1` (stereo unspecified) it is 5.97%; for `CN(c1ccccc1)c1nc(N)c([N+](=O)[O-])c(Nc2ccc(F)cc2)n1` it is -0.48%. Consider `O=C(COn1nnc2ccc(Cl)cc21)NC12CC3CC(CC(C3)C1)C2`, for which the inhibition worked out at 40.6%. The figure for `CC(Sc1nncs1)C(=O)NC1CCCCC1C` (stereo unspecified) is 5.31%; for `COCCOc1ccc(C(F)(F)F)cc1NC(=O)COC(=O)c1c(C)noc1C` it is -18.7%. The figure for `Cc1ccsc1C1NC(=O)c2c(sc3c2CCCC3)N1` (stereo unspecified) is -4.69%; for `CN(C)c1nc(=S)nc(NCc2ccccc2)[nH]1` it is 5.74%; for `CC1CCN(S(=O)(=O)c2ccc3c(c2)N(C)C(=O)CC(=O)N3C)CC1` it is -12.8%. Take `O=[N+]([O-])c1ccccc1/C=N/Nc1nnc(-c2ccccc2)c(-c2ccccc2)n1`: the inhibition is -13.8%. As for `CCCCc1nc(C(N)=O)c2[nH]c(=O)n(-c3ccc(OC)cc3OC)c2n1`, the figure is -2.08%; as for `CC(C)N1CCc2c(sc(NC(=O)CCS(=O)(=O)c3ccccc3)c2C#N)C1`, -1.34%; as for `C/C(CC(=O)Nc1ccccc1Br)=N\NC(=O)C(=O)N1CCCC1`, -2.63%. The figure for `CC(C)(C)NC(=O)CSc1nnc(-c2ccccn2)n1-c1ccccc1` is -0.8%; for `CCN(C)c1ccc(/C=N\n2nnnc2N)cc1` it is -9.34%. As for `O=C(Nc1nccs1)c1cccc(S(=O)(=O)N2CCCCC2)c1`, the figure is -0.37%; as for `CC1CCc2c(sc3ncnc(N4CCOCC4)c23)C1` (stereo unspecified), -11.4%; as for `CSc1ncnc2c1ccn2CC(=O)Nc1ccc(C)c(C)c1`, 41.4%. `C=CCNC1=C(Cl)C(=O)c2ccccc2C1=O`: the inhibition came out at 46.5%. The figure for `O=C(Nc1ccccc1C(=O)NCCN1CCOCC1)c1ccco1` is 3.36%; for `CCCN(C(=O)c1ccc2c(SCC(=O)O)c3c(nc2c1)CCC3)c1cccc(C)c1` it is -2.19%. The figure for `Cc1cc(C)c(C)c(S(=O)(=O)NCc2ccc(C(=O)N3CCN(C)CC3)cc2)c1C` is -5.78%; for `CC1CCc2c(C(=O)Nc3cccc(-c4nn[nH]n4)c3)csc2C1` (stereo unspecified) it is 0.37%.

As to `O=C(N/N=C/c1cc(Cl)c(O)c(Cl)c1)c1cc2c(ccc3ccccc32)o1`, the inhibition worked out at 0.54%. As for `CC1CCN(C(=O)CSc2nnc(Cn3c(=O)sc4ccccc43)n2C)CC1`, the figure is -13.1%. Regarding `Cc1ccccc1OCCNC(=O)/C=C/c1ccc([N+](=O)[O-])cc1`, the inhibition is -6.47%. As for `Brc1ccc(-c2nn3c(-c4ccccn4)nnc3s2)o1`, the figure is -3.7%; as for `Cc1nc(N)c(C#N)c(-c2cccnc2)c1-c1ccccc1`, -3.36%; as for `Cc1ccc(NC2=C(Cl)C(=O)OC2OC(=O)c2ccco2)c(C)c1` (stereo unspecified), -8.5%. As for `CN(C)S(=O)(=O)c1ccc(C(=O)/C=C/c2cccnc2)cc1`, the figure is 18.5%; as for `O=C(CSc1ccc2nnc(-c3ccccn3)n2n1)Nc1ccccc1C(F)(F)F`, 0.17%.
